Results on 56 compounds are retold here after article PMC4336329 (PLoS ONE, 2015).

Structures are written as SMILES. Hit rate of the full screen: of about 310,000 compounds, about 2,200 (0.71%) showed an effect of 50% or more. Effects have a minus sign here. The list shows a part of the results.

Sequence of human ether-à-go-go-related gene (hERG) potassium channel (Q12809 whole entry, looked up): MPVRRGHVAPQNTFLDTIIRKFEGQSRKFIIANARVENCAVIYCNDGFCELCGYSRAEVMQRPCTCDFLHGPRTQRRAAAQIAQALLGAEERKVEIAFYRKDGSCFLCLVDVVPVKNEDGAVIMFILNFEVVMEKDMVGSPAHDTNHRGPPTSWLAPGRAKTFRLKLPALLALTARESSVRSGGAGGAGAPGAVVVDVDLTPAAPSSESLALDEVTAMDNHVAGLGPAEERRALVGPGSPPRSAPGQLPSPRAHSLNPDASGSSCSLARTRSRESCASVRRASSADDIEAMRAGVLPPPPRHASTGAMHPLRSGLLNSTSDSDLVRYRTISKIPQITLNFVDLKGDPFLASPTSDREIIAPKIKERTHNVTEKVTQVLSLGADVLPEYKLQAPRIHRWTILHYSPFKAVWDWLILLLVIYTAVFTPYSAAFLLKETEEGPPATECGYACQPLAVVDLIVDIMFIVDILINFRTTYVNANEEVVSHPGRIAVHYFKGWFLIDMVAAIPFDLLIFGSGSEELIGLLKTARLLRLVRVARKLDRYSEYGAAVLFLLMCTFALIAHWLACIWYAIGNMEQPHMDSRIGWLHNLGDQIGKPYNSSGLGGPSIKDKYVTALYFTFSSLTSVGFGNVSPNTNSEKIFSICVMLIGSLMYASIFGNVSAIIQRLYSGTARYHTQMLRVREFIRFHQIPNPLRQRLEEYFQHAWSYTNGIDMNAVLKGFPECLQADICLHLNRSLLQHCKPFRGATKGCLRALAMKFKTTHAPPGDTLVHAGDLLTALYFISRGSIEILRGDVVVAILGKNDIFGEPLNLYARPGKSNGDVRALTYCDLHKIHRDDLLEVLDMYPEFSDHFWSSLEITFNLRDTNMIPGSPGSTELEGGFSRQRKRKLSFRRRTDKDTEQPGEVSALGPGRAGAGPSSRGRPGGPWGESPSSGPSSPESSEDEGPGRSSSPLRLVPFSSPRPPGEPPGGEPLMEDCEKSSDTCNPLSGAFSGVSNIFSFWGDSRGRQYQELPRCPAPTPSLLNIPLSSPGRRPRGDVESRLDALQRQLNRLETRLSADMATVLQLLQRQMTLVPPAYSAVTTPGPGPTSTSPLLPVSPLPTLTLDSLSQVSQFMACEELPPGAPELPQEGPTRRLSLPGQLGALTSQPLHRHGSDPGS

The assay has as its target human ether-à-go-go-related gene (hERG) potassium channel (human, UniProt Q12809). In words: primary screen, population patch clamp on CHO cells stably expressing hERG.
On to `CC(C)(C)c1ccc(OC(=O)c2ccc3snnc3c2)cc1`, for which the “hERG current change (%, negative = inhibition) at 1uM” value is reported as 14.9%.
Consider `CSCC[C@H](NC(=O)[C@@H]1Cc2ccccc2CN1)C(=O)NC1CCCC1`, for which the “hERG current change (%, negative = inhibition) at 1uM” value is 4.72%.
As for `CCOc1ccc(-c2cc(C(=O)NCCCN3CCOCC3)c3ccccc3n2)cc1`, the figure is 8.35%; as for `CCOC(=O)C(O)(NC(=O)c1cccnc1)C(F)(F)F` (centres unmarked), 7.51%.
As for `COc1ccc(OC)c(N(C(=O)c2ccco2)C(C(=O)NC2CCCC2)c2cc(OC)c(OC)c(OC)c2)c1` (centres unmarked), the “hERG current change (%, negative = inhibition) at 1uM” value is on record as 19.8%.
As for `O=C1C(=O)N(CCCN2CCOCC2)C(c2ccc(F)cc2)/C1=C(\O)c1ccc2c(c1)OCCO2` (centres unmarked), the “hERG current change (%, negative = inhibition) at 1uM” value stood at 1.85%.
Consider `CC(C)(C)OC(=O)N1CCC(C(N)=O)CC1`, for which the “hERG current change (%, negative = inhibition) at 1uM” value was found to be 5.04%.
For `O=C(O)c1cccnc1SCc1cn2cc(Br)ccc2n1`, the “hERG current change (%, negative = inhibition) at 1uM” value is reported as 7.81%.
As to `O=C(O)CCc1ccc(-c2ccc(Br)cc2)o1`, the “hERG current change (%, negative = inhibition) at 1uM” value worked out at 12.6%.
The figure for `O=C(O)c1cccc(NC(=S)NC(=O)c2ccc(-c3ccccc3)cc2)c1` is 9.32%; for `O=C(c1ccco1)N1CCN(S(=O)(=O)/C=C/c2ccccc2)CC1` it is -7.19%.
As for `COc1cccc(-c2nc(NC3CCCC3)c3ccccc3n2)c1O`, the “hERG current change (%, negative = inhibition) at 1uM” value is given as 21.5%.
Regarding `C/C(CC(=O)Nc1cccc(C(F)(F)F)c1)=N\NC(=O)c1cnccn1`, the “hERG current change (%, negative = inhibition) at 1uM” value worked out at 6.96%.
In the case of `COc1ccc(NC(=S)NCCc2ccc(S(N)(=O)=O)cc2)c(OC)c1`, the “hERG current change (%, negative = inhibition) at 1uM” value worked out at 14.3%.
Take `CC(C(O)c1ccc(O)cc1)N1CCC(Cc2ccccc2)CC1.O=C(O)C(O)C(O)C(=O)O` (centres unmarked): the “hERG current change (%, negative = inhibition) at 1uM” value is listed as -33.4%.
On to `Cc1sc2nc(CN3CCOCC3)nc(NS(=O)(=O)c3ccccc3)c2c1C`, for which the “hERG current change (%, negative = inhibition) at 1uM” value is reported as 15.1%.
The figure for `Cc1cc(C(=O)NNC(=S)Nc2ccccc2)nn1C` is 18.1%; for `O=C(CSCc1ccc(F)cc1)Nc1nc2c(s1)CCCC2` it is -0.862%; for `O=C(NCc1ccc(F)cc1)Nc1ccccc1` it is 20.6%.
As to `CCC(=O)Nc1ccc2c(c1)C(=O)N(C)C2=O`, the “hERG current change (%, negative = inhibition) at 1uM” value stood at 12.4%.
`CCCNC(=O)NC(=O)COC(=O)c1ccc(OC)c(S(=O)(=O)N2CCCc3ccccc32)c1`: the “hERG current change (%, negative = inhibition) at 1uM” value turned out to be 9.12%.
Regarding `C[C@]12CCC(O)CC1=CCC1C2CC[C@]2(C)/C(=N\NC(N)=S)CCC12` (some centres unmarked), the “hERG current change (%, negative = inhibition) at 1uM” value was -1.5%.
Consider `COc1ccc(N(C)C(=O)CCS(=O)(=O)c2cccc3nonc23)c(OC)c1`, for which the “hERG current change (%, negative = inhibition) at 1uM” value is 8%.
The figure for `CCOC(=O)c1c(NC(=S)NC(=O)c2ccco2)sc2c1CCCC2` is 15.6%.
As to `CCOCCc1nnc(NC(=O)CS(=O)(=O)Cc2ccccc2)s1`, the “hERG current change (%, negative = inhibition) at 1uM” value came to 11.1%.
On to `COc1ccc(CN2CCN(C(=O)c3ccco3)CC2)cc1`, for which the “hERG current change (%, negative = inhibition) at 1uM” value is given as 6.08%.
As for `Cc1c(Br)c(C(=O)N2CCc3ccccc32)nn1C`, the “hERG current change (%, negative = inhibition) at 1uM” value worked out at 13.2%.
Take `Cc1ccc(CN2CCC(C(=O)NCCC(C)C)CC2)o1.O=C(O)C(=O)O`: the “hERG current change (%, negative = inhibition) at 1uM” value was determined as 10%.
Regarding `Cc1cccc(N(C(=O)c2snc(C(N)=O)c2N)C(C(=O)NCC2CCCO2)c2cccs2)c1` (centres unmarked), the “hERG current change (%, negative = inhibition) at 1uM” value is reported as 4.9%.
As for `Cc1ccc(OCC(O)CN2CCN(CC(O)COc3ccc(C)cc3Cl)CC2)c(Cl)c1` (centres unmarked), the figure is -5.75%; as for `c1ccc(-c2csc3ncnc(-n4cnc5ccccc54)c23)cc1`, 2.21%; as for `CCCCCCCN1C(N(C)C)=NC[C@@H]1Cc1ccccc1`, -69%.
`CSc1cccc(-n2cc(-c3ccc4c(c3)OCO4)[nH]c2=O)c1`: the “hERG current change (%, negative = inhibition) at 1uM” value worked out at 2.39%.
In the case of `COc1ccc2nc(/C(C#N)=C\c3ccc(C(=O)O)cc3)[nH]c2c1`, the “hERG current change (%, negative = inhibition) at 1uM” value is 12.5%.
In the case of `CC1CCC(C(C)C)C(OCC(O)CNC(C)(C)C)C1.Cl` (centres unmarked), the “hERG current change (%, negative = inhibition) at 1uM” value was 14%.
Take `COc1ccc(N=Cc2c(O)n(-c3ccc(C)cc3)c(=O)[nH]c2=O)cc1`: the “hERG current change (%, negative = inhibition) at 1uM” value amounted to 8.42%.
Regarding `COc1ccc(-n2cc(-c3ccccc3)[nH]c2=S)cc1`, the “hERG current change (%, negative = inhibition) at 1uM” value amounted to 5%.
Consider `CCOc1ncccc1C(=O)N(CC)CC(=O)NCc1ccc(Cl)cc1`, for which the “hERG current change (%, negative = inhibition) at 1uM” value amounted to 8.83%.
With `O=C(O)CSCc1cnn(-c2ccccc2)c1-n1cccc1`, the “hERG current change (%, negative = inhibition) at 1uM” value was determined as 1.54%.
With `Cc1ccc(NC(=O)CN(C)C(=O)c2ccc(-n3cncn3)c([N+](=O)[O-])c2)cc1`, the “hERG current change (%, negative = inhibition) at 1uM” value is recorded as 0.604%.
Consider `COc1ccccc1CC(=O)NC1CCCCCC1`, for which the “hERG current change (%, negative = inhibition) at 1uM” value was 13.2%.
Take `O=C(CC1CCCCC1)N1CCCC(c2nc(-c3ccc(S(=O)(=O)N4CCCC4)cc3)no2)C1` (centres unmarked): the “hERG current change (%, negative = inhibition) at 1uM” value was determined as 3.86%.
Turning to `O=C(NCc1cccs1)C1CC(c2ccc(Cl)c(Cl)c2)=NO1` (centres unmarked), the “hERG current change (%, negative = inhibition) at 1uM” value was 11.6%.
`CCCCn1c(N)c(N(CCOC)C(=O)C2CCCN(C(=O)c3ccc(Cl)cc3)C2)c(=O)[nH]c1=O` (centres unmarked): the “hERG current change (%, negative = inhibition) at 1uM” value was -7.09%.
In the case of `Cc1ccc(NC(=O)CCN2C(=O)c3ccccc3S2(=O)=O)cc1C`, the “hERG current change (%, negative = inhibition) at 1uM” value is on record as -3.09%.
As for `O=C(O)c1ccc(N/N=C/C=C/c2ccccc2)cc1`, the figure is 17.2%.
As to `O=C(COC(=O)Cc1n[nH]c(=O)c2ccccc12)Nc1c(Cl)cccc1C(F)(F)F`, the “hERG current change (%, negative = inhibition) at 1uM” value is recorded as 16.3%.
On to `COc1cccc(NC(=O)CCCCCn2nnc3ccccc3c2=O)c1`, for which the “hERG current change (%, negative = inhibition) at 1uM” value turned out to be 4.8%.
With `COC(=O)CCCC1=CC2=CC(=O)C(C)(OC(=O)c3cccs3)C(=O)C2=CN1c1ccccc1` (centres unmarked), the “hERG current change (%, negative = inhibition) at 1uM” value is 6.11%.
On to `CSC1=NCCN1C(=O)c1cccc(C(F)(F)F)c1`, for which the “hERG current change (%, negative = inhibition) at 1uM” value was 11.1%.
As for `CCCCCC(=O)Nc1cccc(C2=NOC3(C2)C[C@H](C(N)=O)N(C(=O)COc2ccc(Cl)cc2)C3)c1` (some centres unmarked), the “hERG current change (%, negative = inhibition) at 1uM” value stood at 6.06%.
Regarding `COC(=O)c1c(NC(=O)C(C)C)sc2c1C(C(=O)OC)CC2` (centres unmarked), the “hERG current change (%, negative = inhibition) at 1uM” value worked out at 19.5%.
Regarding `COc1ccc(N2CC(C(=O)N[C@H](C(=O)NC3CCCC3)C(C)C)CC2=O)cc1` (some centres unmarked), the “hERG current change (%, negative = inhibition) at 1uM” value is listed as 13.8%.
In the case of `C=CCNC(=O)NC(=O)CN1C(=O)NC(c2ccccc2)(c2ccccc2)C1=O`, the “hERG current change (%, negative = inhibition) at 1uM” value was -26.1%.
`O=C(CC(=O)N/N=C/c1ccc(F)cc1)N/N=C/c1ccc(F)cc1`: the “hERG current change (%, negative = inhibition) at 1uM” value amounted to 12.3%.
As for `CNC(=O)c1sc(-c2cccs2)nc1C`, the figure is 15.2%.
